Measurements: the antibiotic and cytotoxicity screens of Wong et al. (2023)
The other results are listed elsewhere or left out.

Tested on: HepG2
Assay: cytotoxicity call (relative viability < 0.9)
Conditions: 10 µM

SMILES	cytotoxicity call
CCCCCCCCc1ccc(-c2ccc(C(=O)O)cc2)cc1	inactive
O=C(C[C@@H]1CC[C@@H]2[C@H](COC[C@H](O)CN2C(=O)c2ccc3c(c2)OCO3)O1)NC1Cc2ccccc2C1	inactive
COc1ccc(CN(C)C[C@@H]2OCCCC[C@@H](C)Oc3ccc(NC(=O)Nc4ccc(OC)cc4)cc3C(=O)N([C@@H](C)CO)C[C@H]2C)cc1	inactive
C[C@@H]1CN([C@H](C)CO)C(=O)c2cccc(NC(=O)C3CCOCC3)c2O[C@@H]1CN(C)Cc1ccc2c(c1)OCO2	inactive
COc1cccc(-c2ccc3c(c2)O[C@H](CN(C)C(=O)C2CCC2)[C@H](C)CN([C@@H](C)CO)S3(=O)=O)c1	inactive
C[C@H]1CN([C@@H](C)CO)C(=O)c2cc(NC(=O)Cn3cnnn3)ccc2O[C@@H]1CN(C)Cc1ccncc1	inactive
CCCCCCCCCCCCCCCCOc1nc2ccc(C)cc2c(=O)o1	inactive
COc1ccc(CC(N)C(=O)NC2C(CO)OC(n3cnc4c(N(C)C)ncnc43)C2O)cc1.Cl.Cl (configuration not stated)	active
CN(C)C(=O)C[C@H]1CC[C@H]2[C@@H](COC[C@@H](O)CN2S(=O)(=O)c2ccccc2)O1	inactive
C[C@@H]1CN([C@H](C)CO)C(=O)Cc2cc(NS(=O)(=O)c3ccc(Cl)cc3)ccc2O[C@@H]1CN(C)Cc1ccc(Oc2ccccc2)cc1	active
C[C@H](CO)N1C[C@H](C)[C@H](CN(C)Cc2ccc(Oc3ccccc3)cc2)Oc2ccc(NC(=O)Cc3cn(C)c4ccccc34)cc2C1=O	active
C[C@@H]1CN([C@H](C)CO)C(=O)c2cc(NC(=O)c3ccncc3)ccc2O[C@@H](C)CCCCO[C@H]1CN(C)C(=O)Nc1ccc2c(c1)OCO2	inactive
